The other results are listed elsewhere or left out. The list includes weakly bound sequences.

This assay addresses T1, MBP-FoxP3dN (UniProt Q99JB6).
T1 sequence: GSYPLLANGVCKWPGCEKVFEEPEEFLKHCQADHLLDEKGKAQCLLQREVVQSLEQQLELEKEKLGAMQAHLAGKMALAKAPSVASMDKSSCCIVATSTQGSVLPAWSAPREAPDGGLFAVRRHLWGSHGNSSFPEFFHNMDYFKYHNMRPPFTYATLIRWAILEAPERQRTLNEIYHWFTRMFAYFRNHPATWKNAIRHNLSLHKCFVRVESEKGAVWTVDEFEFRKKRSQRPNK
Nature of the assay: PD-seq (MBP pull-down with sequencing). As to conditions: 20 mM Tris-HCl pH 7.5, 100 mM NaCl, 1.5 mM MgCl2, 0.4 uM protein, 0.1 uM dsDNA library, 30 min, room temperature, amylose pull-down; high values mean tight binding; double strand, one strand shown.
For “GATGATTGTTCTCCCAGCTGATGAATTCCTCACGTCGAGTAAACAAATTTTCCTAATCTTTCTGTTCAAGCGCCATCTAC”, the binding signal (RPM ratio (pull-down/input)) stood at 0.269.
For “GATGATTGTTCTCCCAGCTGATGAATTGGTGGATTCGAGTAAACAAATTTTCCTAATCTTTCTGTTCAAGCGCCATCTAC”, the binding signal (RPM ratio (pull-down/input)) is 0.614.
As to “GATGATTGTTCTCCCAGCTGATGAATTTGGGTTCTCGAGTAAACAAATTTTCCTAATCTTTCTGTTCAAGCGCCATCTAC”, the binding signal (RPM ratio (pull-down/input)) came to 0.955.
As for “GATGATTGTTCTCCCAGCTGATGAATTGCTGTAGTCGAGTAAACAAATTTTCCTAATCTTTCTGTTCAAGCGCCATCTAC”, the figure is 0.741.
Regarding “GATGATTGTTCTCCCAGCTGATGAATTATGTTTTTCGAGTAAACAAATTTTCCTAATCTTTCTGTTCAAGCGCCATCTAC”, the binding signal (RPM ratio (pull-down/input)) worked out at 6.33.
As for “GATGATTGTTCTCCCAGCTGATGAATTTAACGGGTCGAGTAAACAAATTTTCCTAATCTTTCTGTTCAAGCGCCATCTAC”, the binding signal (RPM ratio (pull-down/input)) turned out to be 0.287.
Regarding “GATGATTGTTCTCCCAGCTGATGAATTTCATGAGTCGAGTAAACAAATTTTCCTAATCTTTCTGTTCAAGCGCCATCTAC”, the binding signal (RPM ratio (pull-down/input)) was found to be 0.45.
As for “GATGATTGTTCTCCCAGCTGATGAATTTGGCTCATCGAGTAAACAAATTTTCCTAATCTTTCTGTTCAAGCGCCATCTAC”, the figure is 0.584; as for “GATGATTGTTCTCCCAGCTGATGAATTTGCCGCATCGAGTAAACAAATTTTCCTAATCTTTCTGTTCAAGCGCCATCTAC”, 1.35.
As for “GATGATTGTTCTCCCAGCTGATGAATTGCGCGTATCGAGTAAACAAATTTTCCTAATCTTTCTGTTCAAGCGCCATCTAC”, the figure is 2.06.
For the sequence “GATGATTGTTCTCCCAGCTGATGAATTCACCTGCTCGAGTAAACAAATTTTCCTAATCTTTCTGTTCAAGCGCCATCTAC”, the binding signal (RPM ratio (pull-down/input)) worked out at 0.292.
The value for “GATGATTGTTCTCCCAGCTGATGAATTCCGACCCTCGAGTAAACAAATTTTCCTAATCTTTCTGTTCAAGCGCCATCTAC” was 0.394.
As for “GATGATTGTTCTCCCAGCTGATGAATTAGCCGAGTCGAGTAAACAAATTTTCCTAATCTTTCTGTTCAAGCGCCATCTAC”, the figure is 0.207; as for “GATGATTGTTCTCCCAGCTGATGAATTTTCTTATTCGAGTAAACAAATTTTCCTAATCTTTCTGTTCAAGCGCCATCTAC”, 0.67.
As for “GATGATTGTTCTCCCAGCTGATGAATTGTACCAGTCGAGTAAACAAATTTTCCTAATCTTTCTGTTCAAGCGCCATCTAC”, the figure is 0.338; as for “GATGATTGTTCTCCCAGCTGATGAATTAGCGCCATCGAGTAAACAAATTTTCCTAATCTTTCTGTTCAAGCGCCATCTAC”, 2.85; as for “GATGATTGTTCTCCCAGCTGATGAATTAAAACGTTCGAGTAAACAAATTTTCCTAATCTTTCTGTTCAAGCGCCATCTAC”, 0.327.
On to “GATGATTGTTCTCCCAGCTGATGAATTACCCATATCGAGTAAACAAATTTTCCTAATCTTTCTGTTCAAGCGCCATCTAC”, for which the binding signal (RPM ratio (pull-down/input)) came to 0.392.
Take “GATGATTGTTCTCCCAGCTGATGAATTCGACATGTCGAGTAAACAAATTTTCCTAATCTTTCTGTTCAAGCGCCATCTAC”: the binding signal (RPM ratio (pull-down/input)) turned out to be 0.986.
As for “GATGATTGTTCTCCCAGCTGATGAATTCGACTCCTCGAGTAAACAAATTTTCCTAATCTTTCTGTTCAAGCGCCATCTAC”, the figure is 0.506; as for “GATGATTGTTCTCCCAGCTGATGAATTACCCGTGTCGAGTAAACAAATTTTCCTAATCTTTCTGTTCAAGCGCCATCTAC”, 0.311.
As for “GATGATTGTTCTCCCAGCTGATGAATTGAGGCAATCGAGTAAACAAATTTTCCTAATCTTTCTGTTCAAGCGCCATCTAC”, the figure is 2.
Take “GATGATTGTTCTCCCAGCTGATGAATTTTGATGCTCGAGTAAACAAATTTTCCTAATCTTTCTGTTCAAGCGCCATCTAC”: the binding signal (RPM ratio (pull-down/input)) worked out at 1.44.
As for “GATGATTGTTCTCCCAGCTGATGAATTAAGTACGTCGAGTAAACAAATTTTCCTAATCTTTCTGTTCAAGCGCCATCTAC”, the figure is 0.451.
As for “GATGATTGTTCTCCCAGCTGATGAATTTCTTGGATCGAGTAAACAAATTTTCCTAATCTTTCTGTTCAAGCGCCATCTAC”, the figure is 0.195; as for “GATGATTGTTCTCCCAGCTGATGAATTGTTACGGTCGAGTAAACAAATTTTCCTAATCTTTCTGTTCAAGCGCCATCTAC”, 0.947.
The value for “GATGATTGTTCTCCCAGCTGATGAATTTCCTAAATCGAGTAAACAAATTTTCCTAATCTTTCTGTTCAAGCGCCATCTAC” was 0.188; that for “GATGATTGTTCTCCCAGCTGATGAATTAAGTTGCTCGAGTAAACAAATTTTCCTAATCTTTCTGTTCAAGCGCCATCTAC” was 1.63; that for “GATGATTGTTCTCCCAGCTGATGAATTCGGGGAATCGAGTAAACAAATTTTCCTAATCTTTCTGTTCAAGCGCCATCTAC” was 0.248.
Regarding “GATGATTGTTCTCCCAGCTGATGAATTATGCCTCTCGAGTAAACAAATTTTCCTAATCTTTCTGTTCAAGCGCCATCTAC”, the binding signal (RPM ratio (pull-down/input)) amounted to 6.22.
As for “GATGATTGTTCTCCCAGCTGATGAATTATCCCAATCGAGTAAACAAATTTTCCTAATCTTTCTGTTCAAGCGCCATCTAC”, the figure is 0.311; as for “GATGATTGTTCTCCCAGCTGATGAATTGCTTCTGTCGAGTAAACAAATTTTCCTAATCTTTCTGTTCAAGCGCCATCTAC”, 0.468; as for “GATGATTGTTCTCCCAGCTGATGAATTGATTCGATCGAGTAAACAAATTTTCCTAATCTTTCTGTTCAAGCGCCATCTAC”, 0.315.
As for “GATGATTGTTCTCCCAGCTGATGAATTGTGCTGCTCGAGTAAACAAATTTTCCTAATCTTTCTGTTCAAGCGCCATCTAC”, the figure is 1.11.
As for “GATGATTGTTCTCCCAGCTGATGAATTCGCAGCGTCGAGTAAACAAATTTTCCTAATCTTTCTGTTCAAGCGCCATCTAC”, the figure is 0.613; as for “GATGATTGTTCTCCCAGCTGATGAATTTCCAACCTCGAGTAAACAAATTTTCCTAATCTTTCTGTTCAAGCGCCATCTAC”, 0.248.
As to “GATGATTGTTCTCCCAGCTGATGAATTATTACCGTCGAGTAAACAAATTTTCCTAATCTTTCTGTTCAAGCGCCATCTAC”, the binding signal (RPM ratio (pull-down/input)) was 0.358.
Consider “GATGATTGTTCTCCCAGCTGATGAATTCCCAGCGTCGAGTAAACAAATTTTCCTAATCTTTCTGTTCAAGCGCCATCTAC”, for which the binding signal (RPM ratio (pull-down/input)) came to 0.371.
As for “GATGATTGTTCTCCCAGCTGATGAATTCGGCCGGTCGAGTAAACAAATTTTCCTAATCTTTCTGTTCAAGCGCCATCTAC”, the figure is 0.43; as for “GATGATTGTTCTCCCAGCTGATGAATTTTTAAGTTCGAGTAAACAAATTTTCCTAATCTTTCTGTTCAAGCGCCATCTAC”, 0.226; as for “GATGATTGTTCTCCCAGCTGATGAATTCTCACACTCGAGTAAACAAATTTTCCTAATCTTTCTGTTCAAGCGCCATCTAC”, 0.322.
“GATGATTGTTCTCCCAGCTGATGAATTTTTGTTGTCGAGTAAACAAATTTTCCTAATCTTTCTGTTCAAGCGCCATCTAC”: the binding signal (RPM ratio (pull-down/input)) was determined as 3.24.
The value for “GATGATTGTTCTCCCAGCTGATGAATTCGCAGAATCGAGTAAACAAATTTTCCTAATCTTTCTGTTCAAGCGCCATCTAC” was 0.208.
As for “GATGATTGTTCTCCCAGCTGATGAATTGACTAAGTCGAGTAAACAAATTTTCCTAATCTTTCTGTTCAAGCGCCATCTAC”, the figure is 0.218.
The value for “GATGATTGTTCTCCCAGCTGATGAATTTCGTGATTCGAGTAAACAAATTTTCCTAATCTTTCTGTTCAAGCGCCATCTAC” was 0.932; that for “GATGATTGTTCTCCCAGCTGATGAATTACCTGGATCGAGTAAACAAATTTTCCTAATCTTTCTGTTCAAGCGCCATCTAC” was 0.195; that for “GATGATTGTTCTCCCAGCTGATGAATTGGGGCACTCGAGTAAACAAATTTTCCTAATCTTTCTGTTCAAGCGCCATCTAC” was 0.454.
Turning to “GATGATTGTTCTCCCAGCTGATGAATTTGTCCCCTCGAGTAAACAAATTTTCCTAATCTTTCTGTTCAAGCGCCATCTAC”, the binding signal (RPM ratio (pull-down/input)) amounted to 3.08.
For the sequence “GATGATTGTTCTCCCAGCTGATGAATTATGAACATCGAGTAAACAAATTTTCCTAATCTTTCTGTTCAAGCGCCATCTAC”, the binding signal (RPM ratio (pull-down/input)) turned out to be 0.545.
Regarding “GATGATTGTTCTCCCAGCTGATGAATTTCAAAGTTCGAGTAAACAAATTTTCCTAATCTTTCTGTTCAAGCGCCATCTAC”, the binding signal (RPM ratio (pull-down/input)) was determined as 0.182.
As to “GATGATTGTTCTCCCAGCTGATGAATTATGTCTCTCGAGTAAACAAATTTTCCTAATCTTTCTGTTCAAGCGCCATCTAC”, the binding signal (RPM ratio (pull-down/input)) worked out at 2.
On to “GATGATTGTTCTCCCAGCTGATGAATTCCGAACTTCGAGTAAACAAATTTTCCTAATCTTTCTGTTCAAGCGCCATCTAC”, for which the binding signal (RPM ratio (pull-down/input)) turned out to be 0.253.
For “GATGATTGTTCTCCCAGCTGATGAATTTCAGTGATCGAGTAAACAAATTTTCCTAATCTTTCTGTTCAAGCGCCATCTAC”, the binding signal (RPM ratio (pull-down/input)) came out at 0.453.
As for “GATGATTGTTCTCCCAGCTGATGAATTTGCTGCATCGAGTAAACAAATTTTCCTAATCTTTCTGTTCAAGCGCCATCTAC”, the figure is 2.1.
For the sequence “GATGATTGTTCTCCCAGCTGATGAATTTATTAATTCGAGTAAACAAATTTTCCTAATCTTTCTGTTCAAGCGCCATCTAC”, the binding signal (RPM ratio (pull-down/input)) is 1.22.
As for “GATGATTGTTCTCCCAGCTGATGAATTTCAATGTTCGAGTAAACAAATTTTCCTAATCTTTCTGTTCAAGCGCCATCTAC”, the figure is 0.864.
As for “GATGATTGTTCTCCCAGCTGATGAATTGCACCTGTCGAGTAAACAAATTTTCCTAATCTTTCTGTTCAAGCGCCATCTAC”, the figure is 0.924; as for “GATGATTGTTCTCCCAGCTGATGAATTTTTCTAATCGAGTAAACAAATTTTCCTAATCTTTCTGTTCAAGCGCCATCTAC”, 0.288; as for “GATGATTGTTCTCCCAGCTGATGAATTAACAGCTTCGAGTAAACAAATTTTCCTAATCTTTCTGTTCAAGCGCCATCTAC”, 0.356.
On to “GATGATTGTTCTCCCAGCTGATGAATTGATAATCTCGAGTAAACAAATTTTCCTAATCTTTCTGTTCAAGCGCCATCTAC”, for which the binding signal (RPM ratio (pull-down/input)) stood at 0.411.
The value for “GATGATTGTTCTCCCAGCTGATGAATTAGAACCATCGAGTAAACAAATTTTCCTAATCTTTCTGTTCAAGCGCCATCTAC” was 0.294; that for “GATGATTGTTCTCCCAGCTGATGAATTTCAGAGGTCGAGTAAACAAATTTTCCTAATCTTTCTGTTCAAGCGCCATCTAC” was 0.235.
For “GATGATTGTTCTCCCAGCTGATGAATTGGTGAGGTCGAGTAAACAAATTTTCCTAATCTTTCTGTTCAAGCGCCATCTAC”, the binding signal (RPM ratio (pull-down/input)) turned out to be 0.385.
